Out of some 310,000 compounds screened, about 2,200 (0.71%) showed an effect of 50% or more. The effect is printed as a negative number. The list shows a part of the results.
These molecules were tested against human ether-à-go-go-related gene (hERG) potassium channel (human, UniProt Q12809) (assay: primary screen, population patch clamp on CHO cells stably expressing hERG).
Sequence of human ether-à-go-go-related gene (hERG) potassium channel (Q12809 whole entry, looked up): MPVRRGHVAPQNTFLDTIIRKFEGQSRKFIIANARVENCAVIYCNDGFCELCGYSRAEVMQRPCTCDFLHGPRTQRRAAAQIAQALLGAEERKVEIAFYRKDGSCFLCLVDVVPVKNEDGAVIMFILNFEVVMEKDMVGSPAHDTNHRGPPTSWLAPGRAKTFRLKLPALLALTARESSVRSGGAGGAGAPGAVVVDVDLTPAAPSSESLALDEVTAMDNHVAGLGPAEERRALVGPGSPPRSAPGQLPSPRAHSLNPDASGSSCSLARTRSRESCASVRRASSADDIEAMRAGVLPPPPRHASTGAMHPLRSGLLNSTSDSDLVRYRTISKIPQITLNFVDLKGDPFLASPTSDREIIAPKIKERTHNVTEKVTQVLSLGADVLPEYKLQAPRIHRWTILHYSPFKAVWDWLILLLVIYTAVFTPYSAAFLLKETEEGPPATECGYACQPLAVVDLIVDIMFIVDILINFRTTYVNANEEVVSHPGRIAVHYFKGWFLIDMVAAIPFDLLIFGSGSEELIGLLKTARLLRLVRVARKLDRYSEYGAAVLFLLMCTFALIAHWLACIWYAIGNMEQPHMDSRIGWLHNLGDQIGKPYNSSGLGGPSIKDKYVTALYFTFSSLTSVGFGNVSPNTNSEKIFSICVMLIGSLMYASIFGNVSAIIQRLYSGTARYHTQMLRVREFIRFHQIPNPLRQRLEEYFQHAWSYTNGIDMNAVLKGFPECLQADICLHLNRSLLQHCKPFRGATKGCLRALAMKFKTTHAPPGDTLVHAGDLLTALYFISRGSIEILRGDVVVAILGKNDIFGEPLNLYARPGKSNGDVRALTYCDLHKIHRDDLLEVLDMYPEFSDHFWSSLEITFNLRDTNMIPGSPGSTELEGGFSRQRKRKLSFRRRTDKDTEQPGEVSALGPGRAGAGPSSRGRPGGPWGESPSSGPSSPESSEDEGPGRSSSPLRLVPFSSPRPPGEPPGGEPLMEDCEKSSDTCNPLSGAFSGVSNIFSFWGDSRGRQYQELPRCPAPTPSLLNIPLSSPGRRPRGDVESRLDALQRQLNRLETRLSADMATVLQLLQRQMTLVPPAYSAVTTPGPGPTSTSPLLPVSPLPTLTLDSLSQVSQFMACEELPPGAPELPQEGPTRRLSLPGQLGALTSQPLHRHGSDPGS

Going from `C/C(=N\N(Cc1ccccc1)c1ccccc1)c1ccncc1.O=P(O)(O)O` to `COc1ccc(NC(=O)CNC(c2ccccc2)c2ccccc2)cc1.O=C(O)C(=O)O`, the “hERG current change (%, negative = inhibition) at 1uM” value rises from 0.864% to 14.5%.

Compared with `CCCCCn1c(SCCCC)nc2c1c(=O)[nH]c(=O)n2C`, `Cn1c(=O)[nH]c(=O)c2c1nc1n2CC(O)CN1c1ccccc1` (stereo not drawn) is higher in “hERG current change (%, negative = inhibition) at 1uM” value: 0.678% for the first, 9% for the second.

Going from `CC(C)(C)NS(=O)(=O)c1ccc2nc(NC(=O)c3ccc(N4C(=O)CCC4=O)cc3)sc2c1` to `Nc1ccc(-c2nc3ccc(C(=O)O)cc3s2)cc1`, the “hERG current change (%, negative = inhibition) at 1uM” value rises from 0.528% to 16.7%.

Compared with `CCn1c(COc2ccccc2)nnc1SCC(=O)Nc1cc(OC)ccc1OC`, `COc1ccc(C)cc1NC(=O)c1nn(-c2ccccc2)cc1OC` is higher in “hERG current change (%, negative = inhibition) at 1uM” value: 1.97% for the first, 11.5% for the second.

First: COc1cc(CNc2ccc(CNc3ncn[nH]3)cc2)ccc1OCc1ccccc1
Second: COc1cc(C)ccc1OCCCOc1ccccc1Cl
The “hERG current change (%, negative = inhibition) at 1uM” value of the first is lower: 9.96% for the first, 10.7% for the second.

Compared with `Cc1cc(C)c(NC(=O)CSc2nnc(-c3ccco3)n2N)c(C)c1`, `Cc1cc(NC(=O)CSc2nnnn2-c2ccc(C)c(Cl)c2)no1` is higher in “hERG current change (%, negative = inhibition) at 1uM” value: 6.78% for the first, 9.52% for the second.

First: Cc1cc(SCC(=O)NC(=O)c2cccn2C)nc2ccccc12
Second: COc1ccc(-n2c(SCC(=O)Nc3ccccc3)nc(O)cc2=O)cc1
The “hERG current change (%, negative = inhibition) at 1uM” value of the first is lower: 5.52% for the first, 11.6% for the second.

Going from `CCc1ccc2nc(SCC(=O)N3CCCCC3)c(C#N)cc2c1` to `Cc1ccc([N+](=O)[O-])cc1N(CC(=O)N1CCCCC1)S(C)(=O)=O`, the “hERG current change (%, negative = inhibition) at 1uM” value rises from 10.7% to 12.4%.

Compared with `O=C(COc1ccccc1)NC1=NCCS1`, `O=C(Nc1ccccc1Oc1ccccc1)C1CC1` is higher in “hERG current change (%, negative = inhibition) at 1uM” value: 2.23% for the first, 17.6% for the second.

Going from `O=C(COc1ccc([N+](=O)[O-])cc1)N(C1CCCCC1)C1CCS(=O)(=O)C1` (stereo not drawn) to `CC1CCCCC1NCC#CCOc1ccc(Cl)cc1.O=C(O)C(=O)O` (stereo not drawn), the “hERG current change (%, negative = inhibition) at 1uM” value falls from 7.44% to 2.89%.

Compared with `CC1(C)CC(NS(=O)(=O)c2ccc(F)cc2)CC(C)(C)N1`, `O=c1oc(-c2ccccc2NS(=O)(=O)c2ccc(F)cc2)nc2ccccc12` is higher in “hERG current change (%, negative = inhibition) at 1uM” value: 3.57% for the first, 11.9% for the second.

Going from `COc1ccc(Cn2c(=O)oc3ccc(C)cc32)cc1OC` to `COc1ccc(NC(=O)NC(C)c2ccc3c(c2)OCO3)cc1OC` (stereo not drawn), the “hERG current change (%, negative = inhibition) at 1uM” value rises from 8.66% to 10.8%.

First: CCOC(=O)CNC(=O)CSc1nnc(C)c(=O)[nH]1
Second: CCOC(=O)c1cc(C(=O)OCC)c(=O)[nH]c1SCc1ccccc1
The “hERG current change (%, negative = inhibition) at 1uM” value of the first is lower: 5.59% for the first, 18.3% for the second.

Compared with `CC(=O)N1c2ccc(S(=O)(=O)N3CCCC3C(=O)Nc3cccc(F)c3)cc2CC1C` (stereo not drawn), `CN1CCN(c2ccc([N+](=O)[O-])cc2NC(=O)c2cccs2)CC1` is lower in “hERG current change (%, negative = inhibition) at 1uM” value: -5.82% for the first, -14.2% for the second.

Compared with `CC(C)c1nn2c(=O)cc(O)nc2s1`, `COc1cccc(C(=O)Nc2ccc(NC(=O)C(C)C)nc2)c1` is lower in “hERG current change (%, negative = inhibition) at 1uM” value: 12.6% for the first, 7.25% for the second.

Compared with `Cc1ccc(C(CNC(=O)C(=O)Nc2ccc3c(c2)OCCO3)N2CCN(C)CC2)cc1` (stereo not drawn), `CCn1c(N2CCN(C(=O)Nc3ccc(F)cc3)CC2)nc2ccccc21` is lower in “hERG current change (%, negative = inhibition) at 1uM” value: -3.79% for the first, -48.4% for the second.

Compared with `Cc1cc(N2CCN(c3ccccc3F)CC2)nc2cc(O)ccc12.Cl`, `O=C(NCCN1CCOCC1)c1cc(-c2cccs2)nc2ccccc12` is higher in “hERG current change (%, negative = inhibition) at 1uM” value: 7% for the first, 7.79% for the second.

Compared with `CCc1ccccc1NC(=O)Cn1nc(C(F)(F)F)c2c1CCC2`, `CCC1CCCCN1CCCNC(=O)Cn1nc(-c2ccc(C)cc2)ccc1=O` (stereo not drawn) is higher in “hERG current change (%, negative = inhibition) at 1uM” value: 2.3% for the first, 3.37% for the second.

First: Nc1ccc(N2CCCCC2)c(S(=O)(=O)Nc2ccccc2Cl)c1
Second: O=C(Nc1ccccc1Cl)NC1(C(=O)N2CCCC2)CCCCC1
The “hERG current change (%, negative = inhibition) at 1uM” value of the first is lower: -16.3% for the first, -5.95% for the second.

Going from `CCOc1ccc(NC(=O)c2ccccc2NC(=O)c2cccnc2)cc1` to `COc1ccc(OC)c(NC(=O)c2cccc(NC(=O)c3ccccc3)c2)c1`, the “hERG current change (%, negative = inhibition) at 1uM” value rises from 12.3% to 13.7%.

Going from `CC1CCN(C(=O)c2[nH]cnc2C(=O)N[C@@H](C)C(=O)OCc2ccccc2)CC1` to `C[C@H](NC(=O)c1[nH]cnc1C(=O)Nc1ccc(Cl)cc1)c1ccccc1`, the “hERG current change (%, negative = inhibition) at 1uM” value falls from 9.66% to 8.87%.

Compared with `CN(C)S(=O)(=O)Oc1ccsc1C(=O)Nc1ccccc1Cl`, `O=C(Nc1ccccc1C(=O)NC1CCCCC1)c1ccco1` is higher in “hERG current change (%, negative = inhibition) at 1uM” value: 5.7% for the first, 12.5% for the second.

Compared with `CSc1ccc(CN2CCN(Cc3ccc([N+](=O)[O-])cc3)CC2)cc1.O=C(O)C(=O)O`, `COc1ccccc1CC(=O)NC1CCN(Cc2ccccc2)CC1` is higher in “hERG current change (%, negative = inhibition) at 1uM” value: -70.5% for the first, 11.1% for the second.

Going from `COc1ccc2[nH]cc(C(=O)CN3CCC(C)CC3)c2c1` to `COC(=O)c1[nH]c2cc(OC)ccc2c1NC(=O)CN1CCC(C(N)=O)(N2CCCCC2)CC1`, the “hERG current change (%, negative = inhibition) at 1uM” value rises from 2.13% to 3.5%.

Going from `Cc1cc(C(F)(F)F)n(-c2ccc(N)cc2)n1` to `COc1ccc(-c2cc(C(F)F)nc(-n3nc(C)cc3C)n2)cc1`, the “hERG current change (%, negative = inhibition) at 1uM” value rises from 9.14% to 11.6%.

First: CCOc1ccc(C2(C)CC(=O)N(C)C2=O)cc1 (stereo not drawn)
Second: CCOc1ccc(C(=O)Nc2nnc(SCC(=O)NCC3CCCO3)s2)cc1 (stereo not drawn)
The “hERG current change (%, negative = inhibition) at 1uM” value of the first is higher: 16.5% for the first, 9.93% for the second.

Compared with `Cc1ccc(C(=O)NCC2(c3ccccc3)CCCC2)cc1`, `CC(C)(C)c1ccc(OCCC(=O)NNC(=O)c2ccccc2)cc1` is lower in “hERG current change (%, negative = inhibition) at 1uM” value: 12.5% for the first, 2.62% for the second.

Compared with `CC(C)C(OC(=O)c1nsc(Cl)c1Cl)C(=O)NCc1ccc2c(c1)OCO2` (stereo not drawn), `CC(C)Oc1ccc(CCC(=O)N/N=C/c2ccc3c(c2)OCO3)cc1` is higher in “hERG current change (%, negative = inhibition) at 1uM” value: 10.7% for the first, 16.1% for the second.

First: CC(C(=O)NCc1cccnc1)N1C(=O)c2ccccc2C1=O (stereo not drawn)
Second: C/C(=N\NC(=O)CCc1ccccc1)C1C(=O)c2ccccc2C1=O
The “hERG current change (%, negative = inhibition) at 1uM” value of the first is higher: 11.2% for the first, 6.76% for the second.

First: CN(C(=O)c1cccc(S(=O)(=O)N2CCOCC2)c1)c1c(N)n(Cc2ccccc2)c(=O)[nH]c1=O
Second: Cc1c(C(=O)N2CCOCC2)sc2nc(-c3ccccc3)cn12
The “hERG current change (%, negative = inhibition) at 1uM” value of the first is higher: 16.2% for the first, 1.69% for the second.

First: CCn1nnnc1-c1ccc(OC)c(S(=O)(=O)Nc2ccc(C(=O)OC)cc2)c1
Second: COc1ccc(-c2cc3c(=O)n(CC(=O)NCc4ccccc4OC)ncn3n2)cc1
The “hERG current change (%, negative = inhibition) at 1uM” value of the first is higher: 9.61% for the first, -12.7% for the second.

Going from `CC(O)[C@H]1CNC(=O)C(=O)N1CCc1cccc(F)c1` (stereo partly drawn) to `C=CCN1CN(CCc2ccccc2)CNC1=S`, the “hERG current change (%, negative = inhibition) at 1uM” value falls from 15.5% to 15.4%.

First: c1cncc(CNc2ncnc3sc4c(c23)CCCC4)c1
Second: CN(C)/C=N/c1sc2c(c1C(N)=O)CCCC2
The “hERG current change (%, negative = inhibition) at 1uM” value of the first is lower: -48.4% for the first, 16.5% for the second.

First: Fc1ccc(-c2nnc3ccc(N4CCCC4)nn23)cc1
Second: Cc1ccc(CNS(=O)(=O)c2c(C)[nH]c(C)c2C(=O)N2CCCC2)cc1
The “hERG current change (%, negative = inhibition) at 1uM” value of the first is higher: 14.9% for the first, 7.8% for the second.

First: Cn1c(SCC(=O)OCC(=O)c2ccccc2)nnc1-c1cccs1
Second: Cc1cccc(OCc2nnc(SCC(=O)NC3CCCC3)n2C)c1
The “hERG current change (%, negative = inhibition) at 1uM” value of the first is lower: 1.31% for the first, 4.8% for the second.

Going from `CCCCn1c(NCc2ccccc2NS(=O)(=O)c2ccc(C)cc2)nc2ccccc21` to `CCCCC(=O)NNC(=O)N1c2ccccc2Sc2ccccc21`, the “hERG current change (%, negative = inhibition) at 1uM” value falls from 7.01% to 6.8%.

Going from `O=C(COC(=O)c1ccc2c(=O)n3c(nc2c1)CCC3)Nc1ccc(OC(F)F)cc1` to `O=C(COC(=O)c1ccc(Cl)nc1)NCc1ccco1`, the “hERG current change (%, negative = inhibition) at 1uM” value rises from 3.79% to 19.4%.

Compared with `COc1ccc(C(=O)C2CCCN(C(=O)c3cc(C)nc(C)n3)C2)cc1OC` (stereo not drawn), `COc1ccc2c(c1OC)CN1CCc3cc4c(cc3[C@H]1C2)OCO4` is lower in “hERG current change (%, negative = inhibition) at 1uM” value: 15.6% for the first, 3.13% for the second.

Compared with `CC(C)Cc1nc(N2CCNCC2)c(C#N)c2c1CCC2`, `CC1CCN(C(=O)CSc2nc3c(c(=O)n2C)SC(C)C3)CC1` (stereo not drawn) is higher in “hERG current change (%, negative = inhibition) at 1uM” value: -0.291% for the first, 13.3% for the second.

Compared with `Cc1n[nH]c(C)c1CN(C)C(=O)c1cc(COc2ccc(F)c(F)c2)on1`, `O=C(COc1ccc(Cl)cc1)NCCCNC(=O)c1cnccn1` is higher in “hERG current change (%, negative = inhibition) at 1uM” value: -4.67% for the first, 8.85% for the second.

First: CCOC(=O)C1=C(COC(=O)[C@H](C)NS(=O)(=O)c2ccc(NC(C)=O)cc2)NC(=O)NC1C (stereo partly drawn)
Second: Cc1ccc(/C=N/NC(=O)CCCOc2ccc(Cl)cc2Cl)cc1
The “hERG current change (%, negative = inhibition) at 1uM” value of the first is higher: 19.4% for the first, 8.28% for the second.

First: CCOc1ccc(CCNC(=O)c2ccc(CS(=O)Cc3cccc(Cl)c3)o2)cc1 (stereo not drawn)
Second: CCN(CC)C(=O)COc1ccc(/C=N/NC(=O)c2cc(-c3ccccc3OC)nc3ccccc23)cc1OC
The “hERG current change (%, negative = inhibition) at 1uM” value of the first is higher: 1.57% for the first, 1.56% for the second.

Compared with `Cc1cc(N/C=C/C(=O)c2ccccc2)ccc1Br`, `O=C(C1CCCO1)N1CCN(C(c2ccccc2)c2ccccc2)CC1` (stereo not drawn) is higher in “hERG current change (%, negative = inhibition) at 1uM” value: 5.69% for the first, 11.6% for the second.

First: Cc1cccc(NC(=O)C2(c3cccs3)CCOCC2)n1
Second: Cc1cc(C)c2c(=O)[nH]n(C3CCOC(C)(C)C3)c2n1 (stereo not drawn)
The “hERG current change (%, negative = inhibition) at 1uM” value of the first is higher: 34.6% for the first, 15.9% for the second.

First: CCOc1ccc2c(c1)n(CO)c(=S)n2CO
Second: CN(C(=O)C1CCOC1)c1nnc(C2CCOC2)s1 (stereo not drawn)
The “hERG current change (%, negative = inhibition) at 1uM” value of the first is lower: 2.29% for the first, 9.56% for the second.

Source: paper PMC4336329 (PLoS ONE, 2015)
